{"source": "PubChem BioAssay AID588855", "about": "(National Center for Advancing Translational Sciences (NCATS), 2011)", "note": "“And” between values parts separate entries of the source, which are not always exact repeats. Equal values may be shown once. In all, about 410,000 compounds went through this assay and about 5,000 (1.2%) were called active. The inconclusive results got no clear call from the source; some entries with a clear call stand among them for comparison. Calls come from the whole dose curve; as a rule, active = well fitted inhibition curve with a large enough effect; inconclusive = small, poorly fitted or top-dose-only effect; inactive = no such curve, though single readings can be large or run the other way. A potency beside an inconclusive call is a rough fit, not a confirmed value. Potency is the fitted concentration of half-maximal effect; tags give direction and shape of the fitted curve.", "data": [{"test": "qHTS for Inhibitors of TGF-b; note: nearly all actives have a fitted effect of over 65% in size", "conditions": "HepG2 CAGA-GFP TGF-b/SMAD3 reporter, GFP fluorescence, 18 h, TGF-beta stimulated, 500 pg/mL final; series mostly up to 46.1 µM", "outline": "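Inhibition was scored as loss of TGF-beta-induced (500 pg/mL final, 18 hours, 37 degrees C) GFP in HEPG2 cells carrying a CAGA-GFP reporter, in DMEM with 1% FBS. Well GFP was summed per cell; Activity was normalised to unstimulated and stimulated DMSO wells, then concentration-response fitting.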", "values": [{"smiles": "Nc1nc(SCc2ccccc2)[nH]c(=O)c1-c1ccccc1", "Potency": "inconclusive: 17.8 µM [inhibitor, single point]"}, {"smiles": "C[C@H]1CN([C@@H](C)CO)C(=O)CCCn2cc(nn2)CO[C@@H]1CN(C)C(=O)Cc1ccccc1", "Potency": "inconclusive: 6.31 µM [inhibitor, single point]"}, {"smiles": "Cc1ccc([C@H]2C(C(=O)O)=CC[C@@H](c3ccc(Cl)cc3)N2S(=O)(=O)c2ccccc2C)cc1", "Potency": "inconclusive: 31.6 µM [inhibitor, single point]"}, {"smiles": "O=C(Nc1cccc(-c2cccc(F)c2)c1)C1CCN(Cc2ccc(CO)o2)CC1", "Potency": "inconclusive: 35.5 µM [inhibitor, single point]"}, {"smiles": "N#C/C(=C\\c1ccc(N2CCOCC2)c([N+](=O)[O-])c1)c1nc2ccccc2[nH]1", "Potency": "inactive"}, {"smiles": "CC(=O)NS(=O)(=O)c1ccc(NS(=O)(=O)c2ccccc2[N+](=O)[O-])cc1", "Potency": "inactive"}, {"smiles": "C=C1CC2(OC1=O)c1ccccc1CCc1ccccc12", "Potency": "active: 8.91 µM"}, {"smiles": "COc1ccc(-c2csc(N3C(=N)SCC3=O)n2)cc1", "Potency": "inconclusive: 3.55 µM [inhibitor, full curve, poor fit]"}, {"smiles": "CCc1ccc(NC(=O)CCCc2nnc3n(C(C)CC)c(=O)c4sccc4n23)cc1", "note": "(configuration not stated)", "Potency": "inconclusive: 22.4 µM [inhibitor, single point]"}, {"smiles": "CN1CCc2c(n(CC(O)CNCc3ccccc3)c3ccccc23)C1=O", "note": "(configuration not stated)", "Potency": "inconclusive: 15.8 µM [inhibitor, single point]"}, {"smiles": "COc1ccccc1Nc1nc(N)nc(-c2oc3ccccc3c2C)n1", "Potency": "inactive"}, {"smiles": "COc1cccc(OCC(O)CN2CCN(CCN3C(=O)c4cccc5cccc(c45)C3=O)CC2)c1", "note": "(configuration not stated)", "Potency": "inactive"}, {"smiles": "O=[N+]([O-])c1c(Nc2cccc(O)c2)cc(Cl)c2nonc12", "Potency": "active: 3.55 µM"}, {"smiles": "Cc1ccc2ccc3c(c2n1)NS(=O)(=O)c1ccccc1-3", "Potency": "inconclusive: 22.4 µM [inhibitor, single point]"}, {"smiles": "COCCn1c(SCC(=O)N2CCC(C)CC2)nc2c([nH]c3ccccc32)c1=O", "Potency": "inconclusive: 6.31 µM [inhibitor, single point]"}, {"smiles": "OCC1OC(n2cnc3c(NCc4ccco4)ncnc32)C(O)C1O", "note": "(configuration not stated)", "Potency": "active: 3.16 µM and active: 5.01 µM"}, {"smiles": "CC(C)(C)c1ccc(C(=O)Nc2ccc(NC(=O)c3ccco3)cc2)cc1", "Potency": "inconclusive: 35.5 µM [inhibitor, single point]"}, {"smiles": "COc1c(C)cc(C(=O)C2CCCN(C(=O)CCc3scnc3C)C2)cc1C", "note": "(configuration not stated)", "Potency": "inconclusive: 5.62 µM [inhibitor, full curve]"}, {"smiles": "CCOc1ccc(CN2CCC(C(=O)Nc3cccc(-c4ccn[nH]4)c3)CC2)cc1Cl", "Potency": "inconclusive: 35.5 µM [inhibitor, single point]"}, {"smiles": "Cc1noc(C)c1CSc1nnc(-c2cc(Cl)ccc2Cl)n1N", "Potency": "inactive"}, {"smiles": "COc1ccc(NC(=O)Cc2ccc(C)cc2)c([N+](=O)[O-])c1", "Potency": "inconclusive: 2.82 µM [inhibitor, single point]"}, {"smiles": "COc1ccc(Nc2nc(N)c3ccccc3n2)c(OC)c1", "Potency": "inactive"}, {"smiles": "Cc1cccc2cc3c(N)c(C(=O)N4CCc5ccccc54)sc3nc12", "Potency": "inactive"}, {"smiles": "Cc1cc(C(=O)Nc2cccc3c2O[C@H](CN(C)CC2CC2)[C@@H](C)CN([C@H](C)CO)C3=O)n(C)n1", "Potency": "inconclusive: 3.98 µM [inhibitor, single point]"}, {"smiles": "O=C(O)CN1C(=O)COc2cc(S(=O)(=O)N3CCCC3)ccc21", "Potency": "inconclusive: 1.78 µM [inhibitor, partial curve, poor fit]"}, {"smiles": "CCNC(=S)NNC(=O)CC(C)C", "Potency": "inconclusive: 35.5 µM [inhibitor, single point]"}, {"smiles": "O=C(Nc1ccccc1Cl)c1cc(C2CCCN(S(=O)(=O)c3cccs3)C2)on1", "note": "(configuration not stated)", "Potency": "inconclusive: 4.47 µM [inhibitor, single point]"}, {"smiles": "CCc1c(C2(O)CCCCC2)[nH]c2cc(C(F)(F)F)ccc12", "Potency": "inconclusive: 22.4 µM [inhibitor, single point]"}, {"smiles": "Cc1ccc2nc(-c3ccccc3)cc(C(=O)N3CCc4ccccc4C3)c2c1", "Potency": "inconclusive: 35.5 µM [inhibitor, single point]"}, {"smiles": "CC(=O)N(c1ccc2oc(=O)sc2c1)S(=O)(=O)c1cccs1", "Potency": "inactive"}, {"smiles": "Cc1cc(C)c(S(=O)(=O)c2c(C)cccc2C)c(OCC(C)C)n1", "Potency": "inconclusive: 25.1 µM [inhibitor, single point]"}, {"smiles": "CC(NC(=O)Nc1nnc(C(F)(F)F)s1)(C(F)(F)F)C(F)(F)F", "Potency": "inconclusive: 35.5 µM [inhibitor, single point]"}, {"smiles": "CCCCN(CC)C(=O)CSc1nc2ccccc2c(=O)n1Cc1ccco1", "Potency": "inactive"}, {"smiles": "CN(Cc1ccco1)c1ncnc2ccc(-c3ccoc3)cc12", "Potency": "inactive"}, {"smiles": "COc1cc(-c2nc(-c3ccccc3)c(-c3ccc(Br)cc3)[nH]2)cc(OC)c1O", "Potency": "active: 12.6 µM"}, {"smiles": "COC(=O)CCc1cccc(CCC(=O)OC)c1", "Potency": "inactive"}, {"smiles": "Cc1ccc(NC(=S)NC(=O)c2ccc(F)cc2)cc1S(=O)(=O)Nc1cccc(Cl)c1", "Potency": "inactive"}, {"smiles": "O=C(Oc1ccccc1)c1cccnc1Oc1ccccc1", "Potency": "inconclusive: 6.31 µM [inhibitor, single point]"}, {"smiles": "CC1CN(C(=O)N2CCC(C(=O)NCc3cccs3)CC2)c2ccccc2O1", "note": "(configuration not stated)", "Potency": "inconclusive: 35.5 µM [inhibitor, single point]"}, {"smiles": "Cc1ccc(/C=C/c2onc(C)c2S(=O)(=O)N2CCC(C(=O)N3CCN(c4cc(C)ccc4C)CC3)CC2)cc1", "Potency": "inconclusive: 2.82 µM [inhibitor, partial curve]"}, {"smiles": "Cc1ccc(Cl)cc1N1CCN(C(=O)COc2cc(=O)n(C)c3ccccc23)CC1", "Potency": "inconclusive: 22.4 µM [inhibitor, single point]"}, {"smiles": "COc1cc(C=C(c2nc3ccccc3s2)c2nc3ccccc3s2)cc(OC)c1O", "Potency": "inconclusive: 35.5 µM [inhibitor, single point]"}, {"smiles": "CC(C)Cn1c(CCCNC(=O)c2ccc(F)cc2)nc2ccccc21", "Potency": "inactive"}, {"smiles": "Fc1cccc(F)c1/C=C/c1ccc2ccccc2n1", "Potency": "inconclusive: 15.8 µM [inhibitor, single point]"}, {"smiles": "COc1ccc(N2C(=O)N3[C@H](c4cccc(C)c4)[C@@H]4C(=O)N(Cc5ccccc5)C(=O)[C@@H]4[C@]3(Cc3ccccc3)C2=O)cc1", "Potency": "inactive"}, {"smiles": "C[C@H](CO)N1C[C@H](C)[C@@H](CN(C)S(=O)(=O)c2ccccc2)Oc2c(NS(=O)(=O)c3cccs3)cccc2C1=O", "Potency": "inconclusive: 28.2 µM [inhibitor, single point]"}, {"smiles": "COc1ccc(CCN(C)C(=O)c2ccc(S(=O)(=O)NCc3ccco3)cc2)cc1OC", "Potency": "inconclusive: 0.316 µM [inhibitor, full curve, poor fit]"}, {"smiles": "COc1ccc(NC(=O)c2cn(CCC#N)nc2-c2cc3ccccc3o2)cc1", "Potency": "inactive"}, {"smiles": "CCCCCN=C(N)N/N=C/c1c[nH]c2ccc(OC)cc12", "Potency": "inconclusive: 35.5 µM [inhibitor, single point]"}, {"smiles": "Cc1ccc(NC(=S)c2nc3ccccc3s2)cc1", "Potency": "inconclusive: 35.5 µM [inhibitor, single point]"}, {"smiles": "C[C@H](CO)N1C[C@H](C)[C@@H](CN(C)Cc2ccc3c(c2)OCO3)Oc2c(NC(=O)Cc3ccccc3)cccc2C1=O", "Potency": "inconclusive: 5.01 µM [inhibitor, full curve, poor fit]"}, {"smiles": "COc1ccc(NCc2nnc(SCc3ccc(Cl)cc3)n2-c2ccccc2)cc1", "Potency": "inconclusive: 25.1 µM [inhibitor, single point]"}, {"smiles": "Cc1ccc(S(=O)(=O)n2nccc2-c2c(-c3ccccc3)noc2C)cc1", "Potency": "inconclusive: 35.5 µM [inhibitor, single point]"}, {"smiles": "Cc1cc(=O)oc2cc3c(cc12)OCO3", "Potency": "inconclusive: 3.98 µM [inhibitor, single point]"}, {"smiles": "Cc1nn2c(-c3cccc(NC(=O)c4ccco4)c3)nnc2c2ccccc12", "Potency": "inconclusive: 11.2 µM [inhibitor, partial curve, poor fit]"}, {"smiles": "Cc1ccc(NC(=O)c2cccc(-n3cnnn3)c2)cc1Cl", "Potency": "inactive"}, {"smiles": "Cc1cccc(NC(=O)CSc2nc3ccccc3c(=O)n2C)c1", "Potency": "inactive"}, {"smiles": "O=C(c1ccc(-c2cccc(C(F)(F)F)c2)o1)N1CCN(c2ccccc2O)CC1", "Potency": "inconclusive: 35.5 µM [inhibitor, partial curve, poor fit]"}, {"smiles": "Cc1ccc(C(=O)OCC(=O)Nc2cccc(S(=O)(=O)NC3=NCCCCC3)c2)c(C)c1", "Potency": "inconclusive: 35.5 µM [inhibitor, single point]"}, {"smiles": "O=S(=O)(c1cccc(NC(=S)Nc2ccc(Br)cc2Cl)c1)N1CCOCC1", "Potency": "inactive"}, {"smiles": "COc1ccc(/C=N/Nc2ccccn2)cc1OC", "Potency": "inactive"}, {"smiles": "Cc1sc2ncn(CC(=O)N3CCN(c4cccc(Cl)c4)CC3)c(=O)c2c1S(=O)(=O)N1CCC(C)CC1", "Potency": "inconclusive: 11.2 µM [inhibitor, partial curve]"}, {"smiles": "CCOC(=O)c1cccc(Nc2nc(-c3cccnc3)nc3ccccc23)c1", "Potency": "inconclusive: 22.4 µM [inhibitor, single point]"}, {"smiles": "C=CCOc1ccccc1C(=O)/C=C1/C(=O)Nc2ccccc21", "Potency": "inconclusive: 31.6 µM [inhibitor, single point]"}, {"smiles": "CCOCCOc1cc(NCc2ccccc2)c2ncn(C(C)C)c2c1", "Potency": "inconclusive: 22.4 µM [inhibitor, single point]"}, {"smiles": "Cc1ccccc1C(=O)Nc1cccc(NC(=O)c2ccc(F)cc2)c1", "Potency": "inactive"}, {"smiles": "CCN(CC)C(=O)[C@H]1C[C@H](CC(=O)NCc2ccc(OC)c(OC)c2)C(=O)N2CCc3c([nH]c4cc(-c5ccco5)ccc34)[C@]12C", "Potency": "active: 12.6 µM"}]}]}
